Results as given in the supplement of paper PMC10126150.
Sequences with one replicate were seen in a single cluster, so their values are uncertain.

System: ATP
Assay: switch fluorescence ratio, 500 uM ATP over buffer (Cy3 cluster intensity, sum of 5 cycles each) (fold (ratio)); higher = stronger signal-on switching upon ATP binding; sequences stand for … in TCGTCGGCAGCGTCAGATGTGTATAAGAGACAGTTTTTTTTTTTTTTTTTTTTTTTTT…TC
Conditions: aptamer strand: ATP DNA aptamer (quencher-CACCTGGGGGAGTATTGCGGAGGAAGG + anchor), 100 nM annealed; ATP concentration: 500 uM; one replicate
Outline: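 Imaging in selection buffer was followed by imaging after 15 min with 500 uM ATP at 22 °C, for Cy3-labelled switching-strand clusters annealed to 100 nM quencher-labelled ATP aptamer on a modified Illumina MiSeq flow-cell. Five of these buffer/ATP cycles ran, separated by NaOH stripping and re-annealing. The fluorescence ratio per cluster is summed target-cycle over summed buffer-cycle Cy3 intensity, averaged per switch-domain sequence; clusters outside 100-1000 RFU were removed.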
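Also: ATP exposure 15 min at 22 °C before imaging.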

Sequence	switch fluorescence ratio
AAAAAACCCC	1.1
AAAAAAGG	1.03
AAAAAATAGC	1.11
AAAAAGCAGC	0.984
AAAAAGGTAC	1.61
AAAAAGGTCT	1.02
AAAAAGTAAT	1.04
AAAAATCAAC	1.01
AAAAATCTAC	1.06
AAAACA	1.04
AAAACAAACG	0.996
AAAACACTTT	1.03
AAAACATAAA	1.07
AAAACATACT	1.3
AAAACCTATA	1.08
AAAACTCTAG	1.06
AAAACTGCT	0.96
AAAAGACAAA	0.976
AAAAGAGTTA	0.969
AAAAGTGC	1.07
AAAATAAATT	0.943
AAAATAATA	0.981
AAAATACTTC	1.18
AAAATAGGCA	1.04
AAAATCAAA	0.981
AAAATCCGT	1.04

Sequence	switch fluorescence ratio
AAAATCGGAT	0.995
AAAATCGGTC	0.938
AAAATGCCCG	1.03
AAAATGCTAA	0.998
AAAATGCTT	1.01
AAAATGGTCG	0.995
AAAATTAAGG	0.962
AAAATTCTCC	1.04
AAAATTTTCC	1.02
AAACAAGGCT	1.05
AAACAGACGG	1.13
AAACAGCTCG	1
AAACAGGTTC	1.05
AAACCCTTGG	1.05
AAACCGGCG	1.04
AAACCTAAGG	1.04
AAACCTGAG	1.47
AAACGACCGG	0.954
AAACGACGCG	1.09
AAACGCCCTT	1.58
AAACGGTGCT	1
AAACTAGGAA	0.986
AAACTAGGAT	1.03
AAACTGCTTT	0.972
AAACTGGGAC	1
AAACTGTT	0.893

Sequence	switch fluorescence ratio
AAACTTACGG	1.32
AAACTTGACG	1.03
AAACTTTATC	1.01
AAAGAAGACC	1
AAAGACACGT	1.03
AAAGACGGGT	0.978
AAAGACTTAT	0.993
AAAGAGAGT	0.985
AAAGAGCTGG	1.01
AAAGAGCTTT	0.95
AAAGAGTAAG	0.967
AAAGATCATG	0.966
AAAGATGTAT	1.05
AAAGCATCAG	1.01
AAAGCCAGGA	1.08
AAAGCCATGA	0.982
AAAGCGGGG	0.988
AAAGCGGTGC	1.22
AAAGCTTAGA	0.958
AAAGCTTAGT	0.975
AAAGGACCTA	1.01
AAAGGATTTC	0.981
AAAGGCAGGT	1.05
AAAGGCGCGG	0.992
AAAGGGAACG	1.12
AAAGGGCACG	0.925

Sequence	switch fluorescence ratio
AAAGGGGTA	0.991
AAAGGGTAGG	0.991
AAAGGTAGGA	1.04
AAAGGTGGCC	1.1
AAAGGTGT	1.21
AAAGGTTCAG	1.02
AAAGTAGATT	1.01
AAAGTATT	1.04
AAAGTCAGAG	0.974
AAAGTCAGTG	1.03
AAAGTCTACC	1.01
AAAGTCTTTT	0.995
AAAGTTCATT	1.01
AAAGTTGATG	0.994
AAATAATGTT	1.02
AAATACTCTT	1.13
AAATAGAGCG	1.03
AAATAGATTA	0.985
AAATAGGG	1.02
AAATAGTAGA	1
AAATAGTGGT	0.981
AAATAGTGTA	1.02
AAATATACTC	1.16
AAATCCGAAG	1.14
AAATCCGGGC	1.07
AAATCCTCTG	1.16

Sequence	switch fluorescence ratio
AAATCTGCGG	1.03
AAATGAAATG	1.02
AAATGAAGGA	1.03
AAATGAGAG	1
AAATGAGAGC	0.931
AAATGAGGA	0.99
AAATGCACGG	1.12
AAATGCGGTT	1.03
AAATGGAAGA	0.996
AAATGGCGTA	1.01
AAATGGCTCA	1.01
AAATGGCTTT	0.998
AAATGGGGGC	0.997
AAATGGTGAG	0.972
AAATGTCGGA	0.955
AAATTACCCG	1.03
AAATTAGGG	0.986
AAATTCCAAT	1.05
AAATTGATAG	0.998
AAATTGCATC	0.983
AAATTGCCGT	0.976
AAATTGCTCA	0.958
AAATTGCTGG	0.976
AAATTTTAAC	1.03
AACAAACACG	1.1
AACAAGGCA	1.01

Sequence	switch fluorescence ratio
AACAAGTGAT	1.01
AACAAGTTTG	0.995
AACAATGGTT	0.997
AACACAGGTC	1.02
AACACGGGGC	1.05
AACACTCTTT	1
AACACTGTAA	1.2
AACACTTCG	1.05
AACAGGGAGT	0.972
AACAGGGGTT	0.979
AACAGTATAA	1.08
AACAGTCGAA	0.984
AACAGTTCAG	0.996
AACATGAAGA	1.01
AACATGACTG	1.03
AACATGCATC	1.02
AACATGTTTT	1.05
AACCAAAGTG	0.951
AACCAACAAT	1.05
AACCAACGAT	1.39
AACCAACTAC	1.27
AACCACGCGC	1.13
AACCACGGGG	1.01
AACCAGAGCG	0.998
AACCATAGAG	1.03
AACCCAAACT	1.05

Sequence	switch fluorescence ratio
AACCCAATCC	1.61
AACCCCCCCC	1.61
AACCCTAGGG	1.04
AACCCTAGTT	1.02
AACCCTGC	1.04
AACCCTTATG	1.04
AACCCTTCTA	1.03
AACCGCAGGT	0.96
AACCGCGAAG	1.05
AACCGGTATG	0.978
AACCGTATTA	1.1
AACCGTGGAA	1.02
AACCGTTGTG	0.987
AACCTAACCG	1.19
AACCTCAAGG	0.993
AACCTCATAA	0.977
AACCTCTGAT	1.06
AACCTTTTAG	1.01
AACGAAACGG	1.05
AACGAAGCGT	1.03
AACGACAGAT	1.01
AACGACCTAA	1.07
AACGACGATA	1.14
AACGACGGAC	1.62
AACGACGTGG	0.976
AACGATAAGG	1.04

Sequence	switch fluorescence ratio
AACGCATCAT	1.08
AACGCGAGTG	0.95
AACGCTGGCT	1.01
AACGCTTTGA	1.1
AACGGAGAGT	1
AACGGAGTAT	1.03
AACGGCGGTA	0.994
AACGGCGTAT	1.01
AACGGGACAG	1.05
AACGGGCATG	1.04
AACGGTTGTC	1.07
AACGTCTAGC	1.08
AACGTGCCT	1.03
AACGTGCTAC	1.3
AACTAAACTG	1.13
AACTACGAAG	0.987
AACTACGGA	1.08
AACTAGAAGC	0.997
AACTAGAGTG	0.929
